# In PubChem BioAssay AID686979 (National Center for Advancing Translational Sciences (NCATS), 2013):
# Where “and” joins values, the source holds several entries; their conditions need not be identical. Equal entries are not always repeated. Out of some 420,000 compounds screened, about 50,000 (12%) were called active. Inconclusive results, whose numbers are uncertain, are shown with a selection of clear calls. Calls come from the whole dose curve; as a rule, active = well fitted inhibition curve with a large enough effect; inconclusive = small, poorly fitted or top-dose-only effect; inactive = flat fitted curve, though single readings scatter. A potency beside an inconclusive call is a rough fit, not a confirmed value.
# Test: qHTS for Inhibitors of human tyrosyl-DNA phosphodiesterase 1 (TDP1): qHTS in cells in presence of CPT; note: nearly all actives have a fitted effect of over 55% in size
# Conditions: chicken DT40 Tdp1-/-;hTDP1 cells + 20 nM CPT, ATP luminescence, 48 h; series mostly up to 46.2 µM
# In short: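 Chicken DT40 Tdp1-/- cells stably complemented with human TDP1 were seeded at 400 cells/well in medium containing 20 nM camptothecin, exposed to pin-transferred compounds, and grown at 37 °C for at least 48 hr. Viability was read as ATP luminescence.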
# Potency is the fitted concentration of half-maximal effect; tags give direction and shape of the fitted curve.
row,SMILES,Potency
1,CCCCN(C(=O)CSc1nnc(-c2ccc(Cl)cc2)o1)c1c(N)n(CC(C)C)c(=O)[nH]c1=O,"inconclusive: 25.9 µM [inhibitor, single point]"
2,CCc1nnc(NC(=O)CN2CCCC(C)C2)s1 (configuration not stated),inactive
3,O=S(=O)(c1ccc(Cl)cc1)c1nc(-c2ccccc2F)oc1NCCCN1CCOCC1,"inconclusive: 18.4 µM [inhibitor, partial curve]"
4,O=C(N/N=C/c1cc(Br)c(O)c(Br)c1O)c1cccnc1,active: 20.6 µM
5,CC(C)(C)CC(C)(C)NC(=S)Nc1ccc(S(=O)(=O)N2CCOCC2)cc1,"inconclusive: 23.1 µM [inhibitor, single point]"
6,COc1cccc(N/C=C/C(=O)c2ccc(C)cc2)c1,inactive
7,COCCn1c(=O)c(-c2cccs2)nc2cnc(N3CCNCC3)nc21,"inconclusive: 23.1 µM [inhibitor, single point]"
8,O=C(Cn1ncc2c3ccccc3n(Cc3ccccc3F)c2c1=O)NCCCc1ccccc1,"inconclusive: 16.4 µM [inhibitor, single point]"
9,CCOc1ccccc1C(=O)N(Cc1ccco1)Cc1ccccc1F,active: 20.6 µM
10,Cc1ccc(C(=O)Nc2ccc(Br)cc2)cc1S(=O)(=O)NCc1ccccc1,"inconclusive: 29.1 µM [inhibitor, single point]"
11,CC(=O)Nc1ccc2c(c1)-c1ccc(F)cc1C2,"inconclusive: 6.51 µM [inhibitor, single point]"
12,CN(C)Cc1c(O)ccc2occ(C(=O)c3ccc(F)cc3)c12,"inconclusive: 29.1 µM [inhibitor, single point]"
13,Cc1cc([N+](=O)[O-])ccc1NCc1cccc2ccccc12,"inconclusive: 23.1 µM [inhibitor, single point]"
14,O=C(CN1CCN(Cc2ccccc2)CC1)Nc1ccc(Br)cc1,"inconclusive: 18.4 µM [inhibitor, partial curve]"
15,Cc1cccn2c(NCc3ccc4c(c3)OCO4)c(-c3ccc(O)cc3)nc12,inactive
16,COc1ccc(Cl)cc1C(=O)NCCS(=O)(=O)N1CCN(c2ccccc2F)CC1,"inconclusive: 25.9 µM [inhibitor, single point]"
17,COC(=O)C[C@@H]1C[C@@H]2c3cc(NS(=O)(=O)c4ccccc4)ccc3O[C@@H]2[C@@H](CO)O1,"inconclusive: 18.4 µM [inhibitor, single point]"
18,COc1cccc(N2CCN(S(=O)(=O)c3ccc(-c4coc(C)n4)cc3)CC2)c1,"inconclusive: 23.1 µM [inhibitor, single point]"
19,COc1cc(/C=N/OCC(=O)Nc2cc(C)cc(C)c2)ccc1OCc1ccc(Cl)cc1,"inconclusive: 20.6 µM [inhibitor, single point]"
20,Cc1cccc(Cn2nc(C)cc2NC(=O)CCCn2ccc([N+](=O)[O-])n2)c1,inactive
21,CCc1nc2ccc(C(=O)NCc3cccc(Br)c3)cc2nc1CC,"inconclusive: 29.1 µM [inhibitor, single point]"
22,COc1ccc(OCCC(=O)OCC(=O)NCCC2=CCCCC2)cc1,inactive
23,O=C(CCc1nc2ccccc2c(=O)[nH]1)Nc1nnc(SCc2ccccc2F)s1,active: 13 µM

row,SMILES,Potency
1,Nc1nc2ccccc2n1CCOc1ccc(F)cc1,"inconclusive: 16.4 µM [inhibitor, single point]"
2,CCOC(=O)C1=C(C)NC(C)=C(C(=O)OCC)C1C(=O)OCC(=O)NCCc1ccccc1,"inconclusive: 29.1 µM [inhibitor, single point]"
3,O=Cc1ccc(Oc2cnccn2)cc1,inactive
4,O=C(COC(=O)CNS(=O)(=O)c1ccc(Br)cc1Cl)Nc1ccc(N2CCOCC2)cc1,inactive
5,COCCCNC(=S)N1CCC(C(=O)c2ccc(Cl)cc2)CC1,inactive
6,COc1ccc(-c2nc3ccccc3s2)cc1NC(=O)COc1cccc(C)c1,"inconclusive: 16.4 µM [inhibitor, single point]"
7,COc1ccc(-n2c(=O)c(CCC(=O)N(C)Cc3cccs3)nc3ccccc32)cc1,"inconclusive: 18.4 µM [inhibitor, single point]"
8,COc1cccc(C(O)c2nc(/C=C/c3ccccc3)cs2)c1 (configuration not stated),"inconclusive: 20.6 µM [inhibitor, partial curve]"
9,CC(c1ccccc1)N1CC(C(=O)N2CCN(Cc3ccc(C#N)cc3)CC2)CC1=O (configuration not stated),inactive
10,COc1cccc(/C=C2\SC(=S)N(CCC(=O)N3CCCCC3)C2=O)c1,active: 6.51 µM
11,CCc1ccc(S(=O)(=O)Nc2cc3c(cc2N2CCOCC2)n(C)c(=O)c(=O)n3C)cc1,"inconclusive: 7.31 µM [inhibitor, partial curve] and inconclusive: 9.2 µM [inhibitor, partial curve, poor fit]"
12,Cc1ccc(S(=O)(=O)N(C)C)cc1NC(=O)COC(=O)/C=C/c1ccc2ccccc2n1,"inconclusive: 29.1 µM [inhibitor, single point]"
13,O=C(c1csnn1)N1CCC2(CCCN(Cc3ccccc3)C2)CC1,inactive
14,O=C(CSc1nc2ccccc2c(=O)n1-c1ccc(F)cc1)Nc1ccc(N2CCOCC2)cc1,"inconclusive: 25.9 µM [inhibitor, partial curve]"
15,COc1ccccc1NC(=O)Nc1ccc(C(=O)N2CCCCC2)cc1,"inconclusive: 23.1 µM [inhibitor, single point]"
16,CC(=O)c1ccc(NC(=O)C2CCCN2S(=O)(=O)c2ccc(C)cc2)cc1 (configuration not stated),"inconclusive: 16.4 µM [inhibitor, single point]"
17,Cc1nc2ccc(C(=O)N3CCC(O)(Cc4ccccc4)CC3)cn2c1N(C)C(=O)CCc1ccccc1,"inconclusive: 29.1 µM [inhibitor, single point]"
18,Cn1cccc1/C=N/N1CCN(Cc2ccccc2Cl)CC1,inactive
19,CC(C)(C)n1nnnc1C(c1cccs1)N(Cc1ccccc1)Cc1ccco1 (configuration not stated),"inconclusive: 29.1 µM [inhibitor, single point]"
20,CCOC(=O)N1CCN(S(=O)(=O)c2ccc(C(=O)N(CCN(CC)CC)c3nc4ccc(C)cc4s3)cc2)CC1,"inconclusive: 29.1 µM [inhibitor, single point]"
21,Cc1ccccc1-c1cc(C(=O)NCc2ccco2)n(CC2CC(c3cccnc3)=NO2)n1 (configuration not stated),active: 18.4 µM
22,CCCOc1ccc(C(=O)O/N=C(\CC)c2ccc(C)cc2)cc1,"inconclusive: 25.9 µM [inhibitor, single point]"
23,O=C(Nc1ccc(OC(F)(F)F)cc1)C1CCCCN1S(=O)(=O)c1ccccc1 (configuration not stated),"inconclusive: 20.6 µM [inhibitor, single point]"

row,SMILES,Potency
1,Cc1c(NC(=O)COC(=O)CCC(=O)c2ccc(Cl)cc2)c(=O)n(-c2ccccc2)n1C,"inconclusive: 29.1 µM [inhibitor, single point]"
2,CCS(=O)(=O)N1Cc2ccccc2CC1C(=O)Nc1nc2ccccc2s1 (configuration not stated),"inconclusive: 29.1 µM [inhibitor, single point]"
3,CCOc1ccc(-n2c(SCc3cc(=O)oc4cc(C)ccc34)nnc2-c2cccnc2)cc1,"inconclusive: 23.1 µM [inhibitor, single point]"
4,CCNc1ccc(C(=O)OCC(=O)N2CCCC2)cc1[N+](=O)[O-],"inconclusive: 29.1 µM [inhibitor, single point]"
5,CCCCC#Cc1cncc(C(=O)N/N=C/c2cccc(OC)c2)c1,inactive
6,CCOc1ccc(NC(=O)CC2C(=O)N(c3ccccc3)C(=O)N2Cc2cccc(OC)c2)cc1 (configuration not stated),active: 10.3 µM
7,C#CCN1C(=O)C(O)(CC(=O)c2cc(OC)ccc2OC)c2ccccc21 (configuration not stated),"inconclusive: 29.1 µM [inhibitor, single point]"
8,CCOc1ccccc1-n1nnnc1SCC(=O)N(C)C1CCS(=O)(=O)C1 (configuration not stated),inactive
9,Cc1ccc(NC(=O)c2cc3c([nH]c2=O)CC(c2ccccc2)CC3=O)cc1 (configuration not stated),"inconclusive: 14.1 µM [inhibitor, partial curve]"
10,O=C(c1cnc(N2CCCCC2)c2ccccc12)N1CCN(c2cccc(Cl)c2)CC1,"inconclusive: 18.4 µM [inhibitor, single point]"
11,Nc1ccn([C@@H]2O[C@H](CNC(=O)[C@@H](N)CSCc3ccccc3)[C@@H](O)[C@H]2O)c(=O)n1,inactive
12,Cc1ccc2nc(NC(=O)CSc3nc(=O)n(CCN(C)C)c4c3CCCC4)sc2c1,inactive
13,O=c1c2cc(C(F)(F)F)ccc2sn1-c1ccccc1,active: 5.17 µM
14,COc1ccc2c(c1)C(=O)N1[C@H]3c4cc(C)ccc4OC[C@@H]3[C@H](c3ccccc3)[C@]1(C)C(=O)N2,active: 7.31 µM
15,CCCn1c(/N=C/c2cc(OC)ccc2O)nc2ccccc21,inactive
16,CCCCNc1sc(S(=O)(=O)CCC)nc1S(=O)(=O)c1ccc(C)cc1,"inconclusive: 29.1 µM [inhibitor, single point]"
17,COc1ccc(S(=O)(=O)N2CCC(C(=O)N3CCc4ccccc4C3)CC2)cc1Cl,"inconclusive: 18.4 µM [inhibitor, single point]"
18,Cc1c(/C=N\NC(=O)c2cc3ccccc3o2)c2ccccc2n1C,active: 3.66 µM
19,CCOc1ccccc1NC(=O)CCc1c(C)nc2c3cccnc3nn2c1C,"inconclusive: 29.1 µM [inhibitor, single point]"
20,CCCCCCCNC(=O)C1CC(=O)N(C)C(=Nc2ccc(OC)cc2)S1 (configuration not stated),"inconclusive: 23.1 µM [inhibitor, single point]"
21,O=C(NCc1ccc(F)cc1)c1ccc(CS(=O)(=O)Cc2ccccc2F)o1,"inconclusive: 13 µM [inhibitor, partial curve, poor fit]"
